In PubChem BioAssay AID624173 (National Center for Advancing Translational Sciences (NCATS), 2012):
The campaign covered roughly 410,000 compounds. About 490 (0.12%) were called active. The shares of active, inactive and inconclusive entries below differ from those in the screen. The call rests on the fitted dose curve; in most records, active means well fitted inhibition curve with a large enough effect; inconclusive means small, poorly fitted or top-dose-only effect; inactive means flat fitted curve, though single readings scatter. A potency beside an inconclusive call is a rough fit, not a confirmed value.

Molecular target: pyruvate kinase (Trypanosoma brucei) (UniProt Q57TT1)
Assay: qHTS of Trypanosoma Brucei Inhibitors; further: nearly all actives have a fitted effect of over 50% in size
Conditions: TbPYK enzyme, Kinase-Glo Plus ATP luminescence, 45 min; series mostly up to 76.8 µM
Summary of the method: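 Activity of T. brucei pyruvate kinase was followed by Kinase-Glo Plus luminescence after the enzyme reacted 45 min at room temperature with 130 uM ADP (final) and substrate. Test compounds were added before ADP at multiple concentrations.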
Potency means the concentration at half of the fitted maximal effect; tags describe the fitted curve by direction and shape.

| SMILES | Potency |
| --- | --- |
| CC(=O)C(Cl)C(=O)Nc1ccccc1 (configuration not stated) | inconclusive: 39.8 µM [inhibitor, partial curve, poor fit] |
| O=C(Cn1cc(C(=O)c2ccco2)c2ccccc21)NC1CC1 | inconclusive: 1.41 µM [inhibitor, full curve] |
| Cc1c(Br)c(O)c(Br)c2sc(=O)oc12 | inconclusive: 25.1 µM [inhibitor, partial curve, poor fit] |
| Cc1nc(Nc2ccccc2)sc1C | inconclusive: 10 µM [inhibitor, partial curve] |
| O=[N+]([O-])c1ccccc1/C=N/n1c(COc2ccccc2)n[nH]c1=S | inconclusive: 2.82 µM [inhibitor, full curve] |
| COc1ccc(NC(=O)c2oc3ccccc3c2C)c(OC)c1 | inactive |
| Cc1ccc(-n2nc(C(=O)N(C)c3ccc(C)c(C)c3)c3c4ccccc4n(C)c3c2=O)cc1 | inactive |
| CC(C)CNC(=O)CCc1nc(-c2ccccc2)no1 | inactive |
| COc1ccc2c3c1OC1C(O)C=CC4C(C2)[N+](C)(C)CCC341 (configuration not stated) | inconclusive: 39.8 µM [inhibitor, single point] |
| COCCN1Cc2cc(=O)n3c([nH]c4ccccc43)c2C1=N | inactive |
| O=C1NC(=O)C(=Cc2cccc(OCCOc3ccccc3)c2)C(=O)N1 | inconclusive: 35.5 µM [inhibitor, partial curve, poor fit] |
| Cc1ccc(CNC(=O)c2ccc3c(c2)S(=O)(=O)c2ccccc2C3=O)o1 | inconclusive: 31.6 µM [inhibitor, single point] |
| CCN(CC)c1ccc(/C=N/N2C(=O)c3ccccc3C2=O)c(O)c1 | inactive |
| CCCS(=O)(=O)N1CCN=C1SCc1cccnc1 | inactive |
| COc1cc(/C=N/n2c(-c3cc(C)[nH]n3)n[nH]c2=S)ccc1O | inconclusive: 14.1 µM [inhibitor, partial curve, poor fit] |
| Cc1ccc(S(=O)(=O)/N=C2\C=C(NS(=O)(=O)c3ccccc3)C(=O)c3ccccc32)cc1 | inconclusive: 31.6 µM [inhibitor, partial curve, poor fit] |
| Cc1cccc(OCCn2c(=S)[nH]c3ccccc32)c1 | inconclusive: 8.91 µM [inhibitor, partial curve] |
| O=C(CSc1ncn[nH]1)c1ccccc1 | inconclusive: 39.8 µM [inhibitor, single point] |
| CC(C)n1c(-c2ccncc2)n[nH]c1=S | inconclusive: 15.8 µM [inhibitor, partial curve, poor fit] |
| O=C1ON=C(c2ccc(Cl)cc2)/C1=C/c1ccc(O)cc1 | inconclusive: 31.6 µM [inhibitor, single point] |
| CCCCn1c(CCn2nc(C)c(Br)c2C)n[nH]c1=S | inconclusive: 11.2 µM [inhibitor, partial curve] |
| Cc1ccccc1NC(=O)CSc1nc2c(oc3ccccc32)c(=O)n1Cc1ccco1 | inactive |
| COc1ccc(-c2csc(/N=C/N(C)C)n2)cc1OC | inactive |
| Cn1c(O)c(/C=C2\C=c3ccccc3=NC2=O)c(=O)n(C)c1=O | inconclusive: 28.2 µM [inhibitor, single point] |

| SMILES | Potency |
| --- | --- |
| O=C(NNC(=O)c1cccc(Br)c1)Nc1ccc(Cl)cc1 | inconclusive: 31.6 µM [inhibitor, partial curve, poor fit] |
| COc1ccc(C)cc1NC(=O)CSc1nc(=O)n(Cc2ccco2)c2c1CCC2 | inconclusive: 20 µM [inhibitor, partial curve, poor fit] |
| CCOC(=O)c1c(NC(=O)Cn2c(=O)oc3ccccc32)oc(C)c1C(C)=O | inactive |
| Cc1nn(C(C)c2n[nH]c(=S)n2-c2cccc(Cl)c2)c(C)c1[N+](=O)[O-] (configuration not stated) | inconclusive: 12.6 µM [inhibitor, partial curve, poor fit] |
| O=C1CN(C(=O)c2ccc(S(=O)(=O)N3CCCC3)cc2)C(c2ccc(F)cc2)c2cc(Br)ccc2N1 (configuration not stated) | inactive |
| Cc1ccccc1NC(=O)Cc1nc(CSc2nnc(-c3ccc4c(c3)OCO4)o2)cs1 | inconclusive: 50.1 µM [inhibitor, single point] |
| CCc1ccccc1Nc1sc(C(=O)c2ccccc2)c(N)c1S(=O)(=O)c1ccccc1 | inactive |
| COC(=O)c1ccc(N2C(=O)CC(Sc3n[nH]c(C)n3)C2=O)cc1 (configuration not stated) | inconclusive: 39.8 µM [inhibitor, single point] |
| O=c1[nH]c(CSc2nc(-c3ccccc3)cs2)nc2ccccc12 | inconclusive: 1.58 µM [inhibitor, full curve, poor fit] |
| Cc1c(NC(=O)c2ccc(-c3ccccc3)cc2)cccc1C(=O)O | inactive |
| Cc1c(/C=C(\CC(=O)O)c2nc3ccccc3s2)cc(C#N)n1C | inconclusive: 39.8 µM [inhibitor, single point] |
| O=S(=O)(Nc1ccccc1N1CCCCC1)c1ccc(Cl)s1 | inconclusive: 25.1 µM [inhibitor, partial curve] |
| O=c1c2ccccc2cnn1-c1nc2ccccc2[nH]1 | active: 12.6 µM |
| O=C(NCC1CCCN1S(=O)(=O)c1cccs1)C(=O)Nc1ccccc1F (configuration not stated) | inactive |
| O=C(O)CCc1nc2cc3ccccc3cc2[nH]1 | inactive |
| Cc1nc2ccc(S(=O)(=O)NC(C(=O)Nc3nccs3)C(C)C)cc2s1 (configuration not stated) | inconclusive: 39.8 µM [inhibitor, single point] |
| Cc1ccc(-n2c(N)c(C(=O)N3CCN(C)CC3)sc2=S)cc1 | inconclusive: 11.2 µM [inhibitor, partial curve] |
| CCOC(=O)c1cnc2ccc(OCC)cc2c1NCc1cccnc1 | inconclusive: 10 µM [inhibitor, partial curve, poor fit] |
| COc1ccc(-c2c3c([nH]c(=S)c2C#N)CCC3)cc1 | active: 12.6 µM |
| CN(C)C(=O)COC(=O)/C=C/c1ccccc1[N+](=O)[O-] | inactive |
| CC(C)CCN=CC1=C(O)CC(c2ccccc2)CC1=O (configuration not stated) | inactive |
| Nc1ccc(-n2cc(-c3ccccc3)[nH]c2=S)cc1 | active: 2.51 µM |
| COc1ccc(N2CSC3=C(C#N)C(c4ccc(OC)c(OC)c4)CC(=O)N3C2)c(OC)c1 (configuration not stated) | active: 7.94 µM |
